Screen size: about 110,000 compounds; about 230 (0.21%) showed an effect of 50% or more. This is one part of the list.
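Also: 30 min substrate incubation versus DMSO and 10 µM JCP410 controls.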

This assay deals with DPAP1 (Plasmodium falciparum, UniProt Q8IIJ9). The experiment in a line: primary screen, percent inhibition; read by cleavage of a fluorogenic dipeptide substrate; higher = more effect of the substance. Set-up: species or system P. falciparum D10 trophozoite lysates; single well.
Sequence of DPAP1 (Q8IIJ9 whole entry, looked up): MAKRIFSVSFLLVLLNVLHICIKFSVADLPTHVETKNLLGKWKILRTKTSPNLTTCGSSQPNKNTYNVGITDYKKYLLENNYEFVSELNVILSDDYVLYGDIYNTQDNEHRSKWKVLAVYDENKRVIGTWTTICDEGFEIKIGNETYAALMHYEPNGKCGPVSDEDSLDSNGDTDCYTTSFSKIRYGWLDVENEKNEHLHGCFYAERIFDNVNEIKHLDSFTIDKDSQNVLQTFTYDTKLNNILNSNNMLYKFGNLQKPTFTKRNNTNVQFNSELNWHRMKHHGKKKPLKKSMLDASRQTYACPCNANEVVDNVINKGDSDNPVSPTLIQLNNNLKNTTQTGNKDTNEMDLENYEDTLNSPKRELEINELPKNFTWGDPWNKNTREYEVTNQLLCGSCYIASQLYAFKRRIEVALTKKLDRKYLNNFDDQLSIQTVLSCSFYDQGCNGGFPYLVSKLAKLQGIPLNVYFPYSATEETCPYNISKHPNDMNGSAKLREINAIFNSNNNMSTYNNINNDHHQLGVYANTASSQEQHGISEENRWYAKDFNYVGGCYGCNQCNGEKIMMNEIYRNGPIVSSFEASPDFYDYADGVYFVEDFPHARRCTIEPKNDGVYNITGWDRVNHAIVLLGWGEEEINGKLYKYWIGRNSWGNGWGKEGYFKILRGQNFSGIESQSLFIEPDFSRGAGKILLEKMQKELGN
For the compound `Cc1ccc(Cl)cc1NC=C1C(=O)N(C)C(=O)N(C)C1=O`, the “% Inhibition @ 10 uM” value was -2.87%.
With `CCCCOc1ccc(C(C)NC(=O)C2CCCN(S(=O)(=O)CC)C2)cc1` (stereo not drawn) the figure was 3.24%; with `O=C(c1ccc(Br)o1)N1CCN(C(c2ccccc2)c2ccccc2)CC1`, -1.54%.
With `CCC1CCCCN1C(=O)CSc1nnc(-c2cccs2)o1` (stereo not drawn) the figure was -4.66%; with `Cc1cc2c(c(=O)n1Cc1cccnc1)C(c1ccco1)C(C#N)=C(N)O2` (stereo not drawn), 3.62%; with `CSC1=C(C#N)C(C)(c2ccccc2)C(C#N)C(=O)N1` (stereo not drawn), -4.33%.
With `CCO/C(O)=C1\C(C)=NC2=C(C(=O)c3ccccc32)C1c1cc(Br)c(OCC)c(OC)c1` (stereo not drawn) the figure was -3.4%.
With `CC(NC(=O)c1ccc2ccccc2n1)c1ccccc1` (stereo not drawn), the “% Inhibition @ 10 uM” value is listed as -4.93%.
With `CN(C)c1ccc(/C=C(\C#N)c2nc(-c3ccc(-c4ccccc4)cc3)cs2)cc1` the figure was 5.77%.
With `Cc1nn(-c2ccc(F)cc2)c(O)c1/C=N/c1ccc(SC#N)cc1` the figure was -2.68%; with `N#CC1=C(N)OC2=C(C(=O)CCC2)C1c1ccccc1[N+](=O)[O-]` (stereo not drawn), -1.29%; with `CCOc1ccc(NC(=O)CN2C(=O)S/C(=C/c3cc(C)n(C)c3C)C2=O)cc1`, -8.2%.
With `COc1nc(C)nc2c(CN3CCCCC3)c(C)[nH]c12` the figure was 3.69%; with `CC1CCN(S(=O)(=O)c2ccc3ncc(C(=O)O)c(O)c3c2)CC1`, -1.46%; with `Cc1ccc(/N=C(/Nc2ccc(C)cc2)c2ccccc2)cc1`, -4.06%.
For the compound `CC(=O)C1C(=O)CC(O)(c2ccccc2)CC1C=C(Cl)Cl` (stereo not drawn), the “% Inhibition @ 10 uM” value is on record as -0.215%.
Regarding `COc1ccc(NC(=O)c2ccccc2N(C)S(=O)(=O)c2ccc(C)cc2)cc1OC`, the “% Inhibition @ 10 uM” value was -3.45%.
With `COc1ccc(-c2nc(S(=O)(=O)c3ccccc3)c(N3CCCCC3)o2)cc1OC` the figure was -1.25%.
With `CN(C)c1ccc(CN(C(=O)COc2ccccc2Cl)C2CCS(=O)(=O)C2)cc1` (stereo not drawn) the figure was -0.28%.
In the case of `Cc1cc(C)c2c(-n3cccc3)c(C(=O)NCCCN3CCc4ccccc4C3)sc2n1`, the “% Inhibition @ 10 uM” value is -4.68%.
With `Cc1ccc(/C=C2\N=C(C3CCCCC3)OC2=O)cc1` the figure was -0.251%; with `O=P(O)(O)c1ccccc1OCCCOc1ccccc1P(=O)(O)O`, -5.63%.
With `O=C(NC(=O)C1CCNCC1)c1cc2c(s1)CS(=O)(=O)C2` the figure was -3.17%; with `Fc1ccc(Nc2nc(-c3ccc(-c4ccccc4)cc3)cs2)cc1`, -4.31%; with `O=C(Nc1ccc(S(=O)(=O)Nc2ccc(F)cc2)cc1)c1ccc(F)cc1`, -2.16%.
With `CC(C)CC(C(=O)NCC#N)c1cccc(-c2ccc(NS(=O)(=O)c3cccs3)cc2)c1` (stereo not drawn) the figure was 0.173%; with `Oc1cc(-c2ccccc2)nc2nc(Cc3ccccc3)nn12`, 0.795%; with `COc1ccc(C(=O)Nc2ccc(Cl)cc2F)c(OC)c1`, 5.26%.
Turning to `Cc1coc2c(C)c3oc(=O)c(CC(=O)O)c(C)c3cc12`, the “% Inhibition @ 10 uM” value came to 2.21%.
With `CC1=C(C(=O)OCC2CCCO2)C(c2cccc(C(F)(F)F)c2)C2=C(O)CCCC2=N1` (stereo not drawn) the figure was 12.2%; with `CC(=O)c1ccc(C(=O)N2CCN(c3ccccc3F)CC2)cc1`, -0.795%.
With `COc1cc(/C=C(\C#N)c2nc3ccccc3[nH]2)c(Br)cc1O` the figure was 9.47%.
With `CCCCN(Cc1ccco1)C(=O)CCc1c(C)nc2c3c(C)cc(C)nc3nn2c1C` the figure was -4.74%.
For the compound `COc1ccc(/C=C/c2ncc3ccccn23)cc1`, the “% Inhibition @ 10 uM” value was found to be 9.21%.
For `COc1ccc(CNc2nc(-c3ccc(F)cc3)cc(C(F)(F)F)n2)cc1`, the “% Inhibition @ 10 uM” value came to 0.287%.
With `CCCN1CCC(N(C)C2CCCCC2)CC1` the figure was 1.57%; with `Cc1ccc(C)c(NC(=O)c2cnccn2)c1`, -3.74%.
With `CC(C)(C)Oc1ncc(-c2ccsc2)c(OC(C)(C)C)n1` the figure was 2.4%; with `Cn1c(=O)cc2c3c(c(N4CCOCC4)ccc31)C(=O)c1ccccc1-2`, -1.64%.
With `CN(CCCNC(=O)C1CCN(S(=O)(=O)N2CCC3(CC2)OCCO3)CC1)Cc1ccccc1` the figure was 2.18%.
Consider `CNC(=O)C(=O)C(CCc1ccccc1)NC(=O)[C@H](CC(C)C)NC(=O)OCc1ccccc1` (stereo partly drawn), for which the “% Inhibition @ 10 uM” value is -5.64%.
Take `COC(=O)CCC(=O)NCc1ccccc1`: the “% Inhibition @ 10 uM” value is given as -0.274%.
With `COc1ccc(OC)c(NC(=O)c2cccc(C)c2)c1` the figure was -2.19%; with `CCOc1ccc2nc(SCC(=O)Nc3ccccc3)sc2c1`, -0.736%; with `Cc1ccc(C(CC(=O)O)N2Cc3ccccc3C2=O)cc1` (stereo not drawn), -4.69%.
With `COc1ccc(S(=O)(=O)N2CCCN(S(=O)(=O)c3ccc(OC)cc3)CC2)cc1` the figure was 3.53%; with `COC(=O)CC1=C(C)C(=O)C=C2C(C)(C)CCC[C@@]21C`, 3.48%; with `CC1CN(Cc2c(O)ccc3c(=O)c(Oc4ccccc4Cl)c(C(F)(F)F)oc23)CC(C)O1` (stereo not drawn), -7.03%.
With `CSc1ncc(CNCCc2ccc(O)cc2)c(N)n1` the figure was 0.324%; with `COc1cc(NS(=O)(=O)c2ccc(NC(=O)Nc3cccc(C)c3)cc2)nc(OC)n1`, 2.79%; with `O=[N+]([O-])c1ccc(Sc2cccc3cccnc23)c2nonc12`, 20.7%.
With `CC(C)NC(=O)C1CCN(S(=O)(=O)N2CCCCCC2)CC1`, the “% Inhibition @ 10 uM” value is reported as 1.16%.
`COc1ccc(S(=O)(=O)N(CC(=O)NCc2cccnc2)c2cccc(Cl)c2)cc1`: the “% Inhibition @ 10 uM” value came to 3.37%.
With `Cc1ccc(C(=O)N2CCN(c3ccnc4cc(Cl)ccc34)CC2)cc1` the figure was -0.403%.
With `CCCCCC(=O)Nc1nnc(COc2ccccc2)s1` the figure was 1.58%; with `COc1cc(/C=C2/C(=O)N(c3ccc([N+](=O)[O-])cc3)N=C2C)cc(Cl)c1O`, -4.61%; with `CC1CN(Cc2ccccc2C(F)(F)F)CC(C)O1` (stereo not drawn), -3%.
With `Cn1c(=O)[nH]c(=O)c2c1nc(NCc1ccccc1)n2CC(O)c1ccccc1` (stereo not drawn) the figure was 0.627%; with `C=CCc1cccc2cc(C(=O)O)c(=O)oc12`, -5.94%; with `COc1ccc2c(c1)N(C(N)=S)C(C)(C)C=C2C`, -2.32%.
As to `O=S(=O)(NCc1cccs1)c1cccc(S(=O)(=O)c2ccc(Br)cc2)c1`, the “% Inhibition @ 10 uM” value was found to be 0.389%.
Take `c1ccc(N2CCN(c3cc(-n4cccn4)ncn3)CC2)cc1`: the “% Inhibition @ 10 uM” value is on record as -0.636%.
With `CC(=O)Nc1sc(Cl)cc1C(=O)Nc1ccccc1` the figure was 1.37%; with `CCOc1ccc(-c2[nH]nc3c2C(c2ccc(F)cc2)NC3=O)cc1` (stereo not drawn), -1.54%.
As for `O=C(Nc1cccc(Cl)c1)N1CCN(C/C=C/c2ccccc2)CC1`, the “% Inhibition @ 10 uM” value is reported as -1.98%.
With `CC1(C)OC(=O)C(=Cc2ccc(Cl)cc2Cl)C(=O)O1` the figure was -7.23%; with `CCC1CCC(N2CCN(c3ccccc3F)CC2)CC1` (stereo not drawn), -1.41%.
With `Cc1nc2scc(C)n2c(=O)c1S(=O)(=O)N1CCN(Cc2ccccc2)CC1` the figure was -5.67%.
With `N#C/C(=C\c1ccc(Br)cc1)c1nc(-c2ccc(-c3ccccc3)cc2)cs1` the figure was 1.91%; with `CC(C)(C)OC(=O)N1CCC(c2c(C(=O)NCCN3CCCC3)cnn2-c2ccccc2)CC1`, -5.6%; with `Cc1cc(C(C)(C)C)cc(C)c1S(=O)(=O)N1CC(=O)Nc2ccccc21`, -5.58%.
On to `O=C(O)CCC(=O)Nc1ccccc1C(=O)O`, for which the “% Inhibition @ 10 uM” value is given as -2.55%.
With `COc1ccc(NC(=O)C2C3CCC(C3)C2C(=O)O)cc1OC` (stereo not drawn) the figure was -3.49%; with `CCC1CCC(N(C)CCN(C)C)CC1` (stereo not drawn), 1.74%.
With `c1ccc2c(c1)CC(NCc1ccc3c(c1)OCO3)C2` the figure was -0.292%.
With `CCOc1ccccc1NC(=O)Cn1nc(C(F)F)cc1C` the figure was 4%; with `CCOC(=O)C1=C(CC)OC(N)=C(C#N)C1c1ccc(F)cc1F` (stereo not drawn), 6.18%.
As to `CNc1nc(Cl)nc(Nc2ccccc2C#N)n1`, the “% Inhibition @ 10 uM” value is on record as -0.999%.
With `Cc1ccc2[nH]c(SCc3ccc(F)cc3)nc2c1` the figure was -0.0235%; with `CN(CC(=O)NCc1ccccc1Cl)S(=O)(=O)c1ccc2[nH]c(-c3ccccc3)nc2c1`, 5.1%; with `COc1ccc(/C=C2/S/C(=N\c3ccccc3)N(C)C2=O)cc1C`, -2.83%.
With `COc1ccc(-c2c(C)nn(Cc3ccccc3)c2N)cc1OC`, the “% Inhibition @ 10 uM” value was -1.11%.
With `COc1ccccc1Cn1cnc2c1c(=O)n(C)c(=O)n2C` the figure was -3.27%.
With `O=C(O)c1ccc2c(c1)C(=O)N(N1C(=O)c3ccccc3C1=O)C2=O` the figure was -5.36%; with `O=C(CC12CC3CC(CC(C3)C1)C2)Nc1c(O)c2ccccc2oc1=O`, 0.974%.
With `O=C(O)c1cccc(-n2cccc2/C=C2/NC(=O)N(Cc3ccccc3F)C2=O)c1` the figure was 4.85%.
In the case of `COc1cc(/C=C(\C#N)[N+](=O)[O-])ccc1O`, the “% Inhibition @ 10 uM” value was found to be 0.705%.
With `COc1cc(OC)cc(C(=O)N(Cc2nc(-c3cccc(C)c3)no2)C(C)C)c1` the figure was 1.66%.
With `CCCc1nn(C)c(C(=O)Nc2cccc(OC)c2)c1Cl` the figure was -1.84%; with `COc1ccc(C2C(C#N)=C(N)OC3=C2C(=O)CCC3)cc1COc1ccccc1Br` (stereo not drawn), -0.105%; with `C=C(C)Cn1c(C(O)c2ccccc2)nc2ccccc21` (stereo not drawn), 1.12%.
With `COc1ccc(-c2noc(-c3ccccn3)n2)cc1` the figure was -3.33%.
`COc1cc2c(cc1OC)C(c1cccc(OC)c1O)NCC2` (stereo not drawn): the “% Inhibition @ 10 uM” value is reported as -11.6%.
Consider `CC(C)c1ccc(NC(=O)CN(c2ccccc2F)S(C)(=O)=O)cc1`, for which the “% Inhibition @ 10 uM” value is given as -5.06%.
With `CCN(CC)c1ccc(NC(=O)COc2ccccc2C)cc1` the figure was -0.999%; with `Cc1ccc(C2CC(C(F)(F)F)n3nc(C(=O)N4CCCC4)c(Cl)c3N2)cc1` (stereo not drawn), -2.8%; with `CCOC(=O)c1nnn(-c2nonc2N)c1CN(C)C1CCCCC1`, 3.25%.
With `CN(CC(COc1ccccc1)OC(=O)c1ccc(Cl)cc1)C1=NS(=O)(=O)c2ccccc21` (stereo not drawn) the figure was -0.597%.
With `O=C(Cn1nnc(-c2ccc(F)cc2)n1)N1CCCCC1` the figure was -5.28%.

The record behind these values is publication PMC6919601, “Identification of Plasmodium dipeptidyl aminopeptidase allosteric inhibitors by high throughput screening” (PLoS ONE, 2019).
